{"source": "PubChem BioAssay AID686970", "about": "(National Center for Advancing Translational Sciences (NCATS), 2013)", "note": "Out of some 360,000 compounds screened, about 6,000 (1.7%) were called active. The inconclusive results got no clear call from the source; some entries with a clear call stand among them for comparison. Calls come from the whole dose curve; as a rule, active = well fitted cell-killing curve with a large enough effect; inconclusive = small, poorly fitted or top-dose-only effect, or effect the other way; inactive = flat fitted curve, though single readings scatter. Potencies of inconclusive entries are left out as doubtful fits. Potency is the fitted concentration of half-maximal effect; tags give direction and shape of the fitted curve."}
{"assay": "qHTS for induction of synthetic lethality in tumor cells producing 2HG: qHTS for the HT-1080-NT fibrosarcoma cell line;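 note: NT is the 2HG producing partner of a matched IDH1 knockdown line; nearly all actives have a fitted effect of over 55% in size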;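 for activity, negative = less viability: 0% = DMSO-treated cells and -100% = media-only wells without cells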", "settings": "HT-1080-NT fibrosarcoma viability, CellTiter-Glo ATP luminescence, 48 h; activity, negative = less viability: at 46.1 µM (top of the series) unless noted", "summary_of_the_method": "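Fibrosarcoma NT cells, 750 per well in 5% FBS RPMI, were exposed to compound for 48 hours. Viability: CellTiter-Glo luminescence.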"}
{"smiles": "Cc1cccc(S(=O)(=O)Nc2cc(Cl)ccc2N2CCOCC2)c1", "activity, negative = less viability": "inactive: -2.76%"}
{"smiles": "COc1ccc(CN2CCCC(C(=O)N3CCc4ccccc4C3)C2)cc1OC", "note": "(stereo unspecified)", "activity, negative = less viability": "inactive: -0.185%"}
{"smiles": "Cc1ccc(/C(N)=N/OC(=O)N2CCOCC2)cc1", "Potency": "inconclusive [cytotoxic, single point]"}
{"smiles": "Cc1nc(NCc2ccccn2)c2ccccc2n1", "Potency": "inconclusive [cytotoxic, single point]"}
{"smiles": "Cc1c(NCc2cc(Cl)cc(Cl)c2O)c(=O)n(-c2ccccc2)n1C", "Potency": "inconclusive [cytotoxic, partial curve]"}
{"smiles": "Nc1ncnc2c1ncn2[C@@H]1O[C@H](CNCc2cccc(C#Cc3ccccc3)c2)[C@@H](O)[C@H]1O", "activity, negative = less viability": "inactive: -0.597%"}
{"smiles": "CC(=O)NC(c1ccc(Cl)cc1Cl)c1ccc2cccnc2c1O", "note": "(stereo unspecified)", "Potency": "inconclusive [cytotoxic, full curve]"}
{"smiles": "NC(=O)c1cccc(-c2ccnc3c2CC(C(=O)NCc2ccccc2)O3)c1", "note": "(stereo unspecified)", "Potency": "inconclusive [cytotoxic, full curve]"}
{"smiles": "COc1cc2c(cc1NC(=O)Cc1ccc(C)cc1)oc1ccccc12", "Potency": "inconclusive [rising, partial curve, poor fit]"}
{"smiles": "CCOC(=O)C1=C(N)n2c(s/c(=C\\c3cccs3)c2=O)=C(C(=O)OCC)C1c1cccs1", "note": "(stereo unspecified)", "Potency": "inconclusive [cytotoxic, full curve]"}
{"smiles": "O=C(COC(=O)C12CC3CC(CC(Cl)(C3)C1)C2)Nc1ccccc1", "activity, negative = less viability": "inactive: 9.62%"}
{"smiles": "Cc1cccc(NC(=O)C[n+]2ccc(N(C)C)cc2)c1", "Potency": "inconclusive [cytotoxic, single point]"}
{"smiles": "Cc1nc2cc(N3CCCCC3)c(NC(=O)c3ccncc3)cc2c(=O)n1Cc1ccccc1", "Potency": "active: 3.66 µM"}
{"smiles": "O=C(Cc1cccs1)Nc1cccc(-c2nc3cc4ccccc4cc3[nH]2)c1", "Potency": "active: 23.1 µM"}
{"smiles": "O=c1[nH]cc(O)c(=O)[nH]1", "Potency": "inconclusive [cytotoxic, single point]"}
{"smiles": "OCCC1CN(Cc2ccc(Oc3ncccn3)cc2)CCN1C1CCCCC1", "note": "(stereo unspecified)", "Potency": "inconclusive [rising, single point]"}
{"smiles": "CC(=O)Nc1ccc(SC[C@H](Cc2ccccc2)N2CC[C@@H](C(C)(C)C)CCC2=O)cc1", "Potency": "inconclusive [cytotoxic, single point]"}
{"smiles": "Cc1c(CCOC(=O)c2cccc([N+](=O)[O-])c2)sc[n+]1CC(=O)c1ccccc1", "activity, negative = less viability": "inactive: -2.85%"}
{"smiles": "COc1ccc(CNC(=O)C[C@@H]2C[C@H]3c4cc(NC(=O)C5CCC5)ccc4O[C@H]3[C@@H](CO)O2)cc1", "activity, negative = less viability": "inactive: -0.572%"}
{"smiles": "COc1ccc(-c2ccc(CN3C(CC(C)C)C(=O)N(Cc4cn(Cc5ccco5)nn4)CCS3(=O)=O)cc2)cc1", "note": "(stereo unspecified)", "activity, negative = less viability": "inconclusive: -30.2% [cytotoxic]"}
{"smiles": "CCCCN(CC)CCNC(=O)c1cc2c(-c3ccc(Cl)cc3)nn(C)c2s1", "Potency": "active: 20.6 µM"}
{"smiles": "CCN(CC)CCN(Cc1cc2cc3c(cc2[nH]c1=O)OCCO3)C(=O)NC1CCCCC1", "activity, negative = less viability": "inactive: -13.3%"}
{"smiles": "FC(F)Oc1ccc(-c2csc(NNC3=NCCCCC3)n2)cc1", "Potency": "inconclusive [cytotoxic, single point]"}
{"smiles": "CC(C)NC(=O)CC1C(=O)N(Cc2ccccc2)C(C)c2nc3ccccc3n21", "note": "(stereo unspecified)", "activity, negative = less viability": "inactive: -0.857%"}
{"smiles": "Cc1ccc(CSCC(=O)N2CCCC2)cc1", "Potency": "inconclusive [rising, partial curve]"}
{"smiles": "Cc1cc(NC(=O)CN2C(=O)NC3(CCCCCC3)C2=O)ccc1Br", "Potency": "inconclusive [cytotoxic, single point]"}
{"smiles": "COc1ccc(CNC(=O)c2sc(=O)n(Cc3ccccc3C)c2C)cc1", "activity, negative = less viability": "inactive: -11%"}
{"smiles": "COc1ccccc1NC(=O)Nc1nnc(Cc2ccccc2F)s1", "Potency": "inconclusive [cytotoxic, partial curve]"}
{"smiles": "COc1ccccc1/C=N/NC(=O)CSc1ccc2ccccc2n1", "Potency": "inconclusive [cytotoxic, single point]"}
{"smiles": "CC(C)(C)OC(=O)n1cc(/C=N/NC(=O)c2ccco2)c2ccccc21", "Potency": "inconclusive [rising, single point]"}
{"smiles": "CN(C)CCCN(C(=O)c1ccc(S(=O)(=O)N2CCc3ccccc3C2)cc1)c1nc2c(F)cc(F)cc2s1", "activity, negative = less viability": "inactive: -23.5%"}
{"smiles": "C/C(N)=C(/C#N)C(=O)COC(=O)c1cc(C)n(-c2ccc(F)cc2)c1C", "Potency": "inconclusive [cytotoxic, full curve]"}
{"smiles": "O=S(=O)(c1ccccc1)n1cc(-c2cccc3nccn23)c2ccccc21", "Potency": "inconclusive [cytotoxic, single point]"}
{"smiles": "COCCOC(=O)c1[nH]c2c(c1C)C(=O)CC(c1cc(OC)ccc1OC)C2", "note": "(stereo unspecified)", "Potency": "active: 11.6 µM"}
{"smiles": "C=CCc1ccccc1OCC(O)CN1CCN(c2ccc(C)cc2)CC1", "note": "(stereo unspecified)", "activity, negative = less viability": "inactive: -25.3%"}
{"smiles": "C[C@H]1CN([C@@H](C)CO)C(=O)CCCn2cc(nn2)CO[C@@H]1CN(C)C(=O)Nc1ccc(C(F)(F)F)cc1", "activity, negative = less viability": "inactive: -6.67%"}
{"smiles": "O=C(/C=C/C(Cl)(Cl)Cl)Nc1ccc(Cl)cc1", "Potency": "inconclusive [cytotoxic, single point]"}
{"smiles": "N#C/C(=C/c1ccc([N+](=O)[O-])cc1)C(N)=O", "activity, negative = less viability": "inactive: -8.12%"}
{"smiles": "Cc1cc(C)n2nc(-c3cccc(Br)c3)cc2n1", "Potency": "inconclusive [cytotoxic, single point]"}
{"smiles": "COc1ccc(N2CC(O)=C(c3nc4ccccc4s3)C2=N)cc1", "Potency": "inconclusive [cytotoxic, partial curve]"}
{"smiles": "CC(C)C1Oc2ccccc2N(CC(=O)NCCCN2C(C)CCCC2C)C1=O", "note": "(stereo unspecified)", "activity, negative = less viability": "inactive: -0.58%"}
{"smiles": "CCc1nc(CN2CCCC(C(=O)c3ccc4c5c(cccc35)CC4)C2)c(C)[nH]1", "note": "(stereo unspecified)", "Potency": "active: 14.6 µM"}
{"smiles": "Cc1cc([N+](=O)[O-])c(-c2ccc(/C=N/n3cnnc3)o2)cc1Cl", "Potency": "active: 10 µM"}
{"smiles": "NC1=NC(c2cccc(Cl)c2)N(CCc2ccc(F)cc2)C(N)=N1", "note": "(stereo unspecified)", "Potency": "inconclusive [cytotoxic, full curve, poor fit]"}
{"smiles": "O=[N+]([O-])c1ccc(N2CCN(Cc3ccccc3)CC2)c2c1no[n+]2[O-]", "Potency": "active: 23.1 µM"}
{"smiles": "CCOC(=O)C1CCCN(S(=O)(=O)c2ccc(S(=O)(=O)N3CCCC3)cc2)C1", "note": "(stereo unspecified)", "activity, negative = less viability": "inactive: 0.283%"}
